{"source": "patent US20250313820A1", "about": "“PEPTIDES WITH MULTIVALENT EFFECTS” (In2Cure AB, priority 2021, published 2025)", "key": {"[1]": {"tested_on": "release of TNF-α in LPS stimulated blood", "assay": "Whole blood assay with cytokine ELISA: TNF-α", "assay_type": "cell-based", "settings": "25% human blood, 100 ng mL^−1 E. coli LPS, 24 h; read-out: Anti-inflammatory activity: Peptide concentration that reduces by 50% the release of TNF-α in LPS stimulated blood", "method": "Fresh venous blood was collected in the presence of lepirudin (50 μg mL^−1) from healthy donors. […] After 24 h incubation at 37° C. in 5% CO2, the plate was centrifuged for 5 min at 1000 g and then the supernatants were collected and stored at −80° C. before analysis. The experiment was performed at least 4 times by using blood from different donors each time. To evaluate the healing properties of the peptides, the blood was stimulated with 100 ng mL^−1 LPS and after 30 min incubation at 37° C. was treated with increasing doses of four peptides. […] Then the blood was stimulated with 100 ng mL^−1 of LPS.\n(§1) Plasma obtained from blood experiment was used to evaluate cytokine release. Human inflammation DuoSet® ELISA Kit (R&D Systems) specific for TNF-α and IL-1β was used according to the manufacturer's instructions. Absorbance was measured at a wavelength of 450 nm. Data shown are mean values±SEM obtained from at least four independent experiments all performed in duplicate.\nFor each experiment blood from a different donor was used.\nas §1, with “experiments” for “experiment”, “from” for “from at least”, “experiments. For 2sGKY25, the data shown are mean values±SEM obtained from two independent experiments.” for “experiments all performed in duplicate.”\nas §1, with “experiments” for “experiment”, “from” for “from at least”, “experiments.” for “experiments all performed in duplicate.”"}, "LPS-induced ARDS": {"tested_on": "LPS-induced ARDS", "assay": "Porcine ARDS model", "assay_type": "in vivo, pigs (Sus scrofa domesticus)"}, "S. aureus ATCC 29213": {"tested_on": "S. aureus ATCC 29213", "assay": "Viable count assay (VCA), S. aureus", "assay_type": "cell-based", "settings": "Tris buffer"}, "[2]": {"tested_on": "cytokine levels in blood after sublethal dose of LPS", "assay": "LPS model in vivo (endotoxin-induced shock), plasma cytokines", "set-up": "species or system C57BL/6 mice"}, "NF-κB activation": {"tested_on": "NF-κB activation", "assay": "Mouse inflammation model, NF-κB reporter mice (IVIS)", "assay_type": "in vivo, BALB/c tg(NF-κB-RE-Luc)-Xen reporter mice", "settings": "50 μg peptide s.c. with 25 μg LPS"}, "[3]": {"tested_on": "NF-κB activation in THP1-XBlue-CD14 reporter cells", "assay": "NF-κB activation assay", "assay_type": "cell-based, human", "settings": "20 h"}, "[4]": {"settings": "two i.v. doses of 12 mg, versus not treated animals"}}, "note": "Part of at least one peptide drawing is inferred or uncertain, most often the ends."}
{"smiles": "CC[C@H](C)[C@H](NC(=O)[C@H](Cc1c[nH]c2ccccc12)NC(=O)[C@H](CCCCN)NC(=O)[C@H](CCCCN)NC(=O)[C@H](CC(C)C)NC(=O)[C@H](CCCNC(=N)N)NC(=O)[C@H](Cc1ccccc1)NC(=O)[C@@H](NC(=O)[C@@H](N)Cc1c[nH]cn1)C(C)C)C(=O)N[C@@]1(C)CCCC=CCCC[C@@](C)(C(=O)N[C@@H](CCC(N)=O)C(=O)N[C@@H](Cc2ccccc2)C(=O)NCC(=O)N[C@@H](CCC(=O)O)C(=O)O)NC(=O)[C@H]([C@@H](C)CC)NC(=O)[C@H](C(C)C)NC(=O)[C@H](CCCCN)NC1=O", "note": "[sHVF18, HVFRLKKWIXKVIXQFGE]", "values": [{"measurement": "IC50", "setting": "[1]", "result": "4.3 ± 1.8", "unit": "µM"}, {"measurement": "overall effect in pigs with acute lung injury and ARDS", "setting": "LPS-induced ARDS; intravenous administration", "result": "ameliorated septic like conditions and hindered development of severe states of ARDS in pigs"}, {"measurement": "significant changes of cardiac output, urine output, inotropic support and lactate levels", "setting": "LPS-induced ARDS; seen in the non-treated animals", "result": "not in the treated animals"}, {"measurement": "treated animals with mild ARDS (Berlin definition)", "setting": "LPS-induced ARDS; two i.v. doses of 12 mg", "result": "one of the five"}, {"measurement": "hemodynamics", "setting": "LPS-induced ARDS; [4]", "result": "stabilized in their hemodynamics"}, {"measurement": "inotropic support required", "setting": "LPS-induced ARDS; [4]", "result": "required significant less inotropic support"}, {"measurement": "concentration killing S. aureus", "setting": "S. aureus ATCC 29213", "result": "lower than 1 μM"}, {"measurement": "cytokine levels in blood", "setting": "[2]; 500 μg i.p. 30 min after LPS, 20 h", "result": "completely failed to reduce the cytokine levels"}, {"measurement": "pro-inflammatory cytokines (TNF-α, IL-6, IFN-γ, MCP-1) in blood", "setting": "[2]; 20, 50 and 100 μg i.p. 30 min after LPS, 20 h", "result": "significant reduction in pro-inflammatory cytokines"}, {"measurement": "cytokine levels in blood", "setting": "[2]; 50 and 100 μg i.p., 8 h", "result": "lower, but still significant reduction of cytokines levels"}, {"measurement": "suppression of LPS-induced local inflammation (NF-κB bioluminescence)", "setting": "NF-κB activation", "result": "strong anti-inflammatory activity"}, {"measurement": "anti-inflammatory activity: LPS-induced NF-κB activation, in words", "setting": "[3]; 100 ng mL^−1 E. coli LPS, increasing peptide concentrations, versus linear peptide", "result": "significantly improved"}, {"measurement": "NF-κB activation induced by other TLR-agonists (LTA, PGN, zymosan), in words", "setting": "[3]; 10 μM peptide", "result": "this was true also for other TLR-agonists"}]}
